Experimental data as given in PubChem BioAssay AID1963576 (National Center for Advancing Translational Sciences (NCATS), 2024).
The campaign covered roughly 46,000 compounds. About 60 (0.1%) were called active. Another 3% or so got no clear call; they are omitted. Calls come from the whole dose curve; as a rule, active = well fitted inhibition curve with a large enough effect; inconclusive = small, poorly fitted or top-dose-only effect; inactive = no such curve, though single readings can be large or run the other way. The list shows a part of the results.

assay: Primary qHTS assay for Inhibitors of ovarian cancer metastasis using an organotypic tumor microenvironment (TME) model.; note: nearly all actives have a fitted effect of over 65% in size;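 for activity change, negative = inhibition: plate controls were DMSO wells for no effect and tomatine positive control wells for full effect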; conditions: SKOV3ip1-GFP adhesion/invasion on 3D omental model, fluorescence; series mostly up to 45.8 µM; activity change, negative = inhibition: at the top concentration
How it was run: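 Primary human omental fibroblast/mesothelial 3D culture pre-formed 48 h. SKOV3ip1-GFP cells added with compounds (0.36-46 umol/L), incubated 2 h RT/16 h 37 C, fixed; GFP cells quantified at 488/509 nm.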

outcome, inactive:
CCC(C)n1c(=N)c(S(=O)(=O)c2ccc(C)cc2)cc2c(=O)n3cc(C)ccc3nc21 (stereo unspecified)
CCOC(=O)N1CCc2c(sc(NCc3ccc(OC)c(Br)c3)c2C(=O)Nc2cc(OC)ccc2OC)C1
O=C(CSc1nc2ccccc2nc1Cc1ccccc1)N1CCN(c2ccccc2)CC1
COc1ccc(CCNC(=O)CCc2c(C)c3cc4c(C)coc4cc3oc2=O)cc1
CN(c1ccccc1)c1ncnc2c1cnn2C
CCC(=O)Nc1ccccc1-c1nc2ccccc2n(C(C)C(=O)Nc2ccc(OC)cc2)c1=O (stereo unspecified)
Cc1ccc2c(c1)C(=O)OC(C(=O)Nc1ncc(Cc3ccccc3)s1)C2 (stereo unspecified)
Cc1cccc(C(=O)N(Cc2ccco2)Cc2ccccc2F)c1
CCc1nn(CCCC(=O)N2CCN(c3ccc(OC)cc3)CC2)c(=O)c2cc3occc3n12
CCOc1ccc(Nc2ncnc3c2nc2n3CCCCC2)cc1
COc1ccc(NC(=O)C2CCC(CNS(=O)(=O)c3ccc4c(c3)C(C)(C)C(=O)N4C)CC2)cc1 (stereo unspecified)
CCOC(=O)c1ccccc1NC(=O)c1ccc2c(Cl)c3c(nc2c1)CCC3

Activity change, negative = inhibition, inactive:
C#C[C@]1(O)CC[C@@H]2[C@@H]3CCC4=CC(=O)CC[C@@H]4[C@H]3CC[C@@]21CC -2.85%
COC(=O)c1c(NC(=O)c2ccc(S(=O)(=O)N3CCCCC3C)cc2)sc2c1CCN(C(C)C)C2 (stereo unspecified) -21.6%
CCOC(=O)c1ccccc1NC(=O)N(Cc1ccc(C)cc1)Cc1cccn1-c1nnc(N2CCCC2=O)s1 -6.22%
Cc1ccc(CNC(=O)c2c(-c3ccccc3F)noc2C)o1 4.08%
COc1cccc(NC(=O)Cn2c(=O)n(CCCC(=O)NCc3ccc4c(c3)OCO4)c(=O)c3ccccc32)c1 -0.353%
Cc1noc(NS(=O)(=O)c2ccc(NC(=O)c3ccc(Br)cc3)cc2)c1C 3.18%
COC(=O)c1nnn(CC(=O)NC(=O)Nc2ccccc2F)c1C(=O)OC 16.4%
Cc1c(Cl)cccc1NC(=O)c1ccc2nc(C(C)C)oc2c1 0.565%
CC(=O)Nc1cc(-c2ccccc2)nn1Cc1cccc(Cl)c1 2.82%
Cc1cccc(NC(=O)NCCOCCn2c(=O)oc3ccccc32)c1C 4.1%
CC(C)Oc1ccc(C(=O)Nc2ccc(-c3nc4ccccc4s3)cc2)cc1 0.887%
CC1Cc2cc(S(=O)(=O)CCC(=O)Nc3ccc(Cl)cc3F)ccc2N1C(=O)C1CC1 (stereo unspecified) -0.621%
COc1ccc(CCC(=O)NCc2nc3cccnc3n2Cc2ccccc2)cc1 -0.939%
CCOc1ccc(CCNC(=O)CCn2c(=O)c3cccn3c3cccnc32)cc1 2.47%
Cc1ccc(Cl)cc1NC(=O)CCCN1C(=O)CCn2nc(-c3cn(C)c4ccccc34)cc21 -0.658%
COc1ccccc1C(=O)Nc1cc(-c2ccc(C)cc2)no1 0.703%
O=C(O)c1ccc(N2C(=O)c3[nH]nc(-c4ccccc4)c3C2c2cccc(F)c2)cc1 (stereo unspecified) 1.38%
COc1ccc(N2CCN(C(=O)c3cc4cc5ccc(Cl)cc5nc4o3)CC2)cc1 4.35%
COc1ccc(C)cc1S(=O)(=O)NCC(c1ccc(N(C)C)cc1)N1CCc2ccccc21 (stereo unspecified) -28.6%
CCc1ccc(C2C(C(=O)Nc3ccc(Cl)cc3)=C(C)Nc3ncnn32)cc1 (stereo unspecified) -0.734%
COc1cccc(-c2nc3c(c(C)nn3-c3ccccc3)c3cc(OC)c(OC)cc23)c1 -7.2%
CCNc1nc(Oc2ccc(=O)n(-c3ccccc3)n2)nc(N(C)C)n1 -2.39%
COc1cccc(C2C(=O)N(C3CCCCC3)CC(=O)N2Cc2ccc(Cl)cc2)c1 (stereo unspecified) 4.27%
Cc1cc(NC(=O)N2CCC(CN3CCOCC3)CC2)ccc1Br -14.6%
Cc1ccc(NC(=O)Cn2c(=O)oc3cc(S(=O)(=O)N4CCC(C)CC4)ccc32)cc1Cl -0.104%
CC1CCCCN1C(=O)CSc1n[nH]c(-c2ccccc2)n1 (stereo unspecified) -7.09%
CC(=O)c1cccc(-n2c(=O)c3c4c(sc3n(CC(=O)c3ccc(Cl)cc3)c2=O)CN(C(C)=O)CC4)c1 18.8%
COc1ccc(CCNC(=O)c2ccc3c(c2)c(C)c(C)n3Cc2ccccc2)c(OC)c1OC 23.7%
Cc1ccc(CCNC(=O)C2CC(=O)N(CCc3ccccc3)C2)cc1 (stereo unspecified) 8.48%
Cc1ccc(C(=O)Nc2cccc(C(F)(F)F)c2)cc1Nc1nc(-c2cccnc2)nc2c1cnn2C -31.1%
Cn1cc(C(=O)NCCc2ccc(Cl)cc2)c(=O)c2cc(S(=O)(=O)N3CCOCC3)ccc21 1.56%
COc1ccc(CNC(=O)CCCc2nnc3n(CCC(C)C)c(=O)c4sccc4n23)cc1 2.12%
O=c1[nH]c(C2CCCN(S(=O)(=O)c3ccccc3Cl)C2)nc2c1nnn2Cc1ccc(OC(F)(F)F)cc1 (stereo unspecified) 4.64%
O=C(Nc1cccc(Cl)c1)c1cc(-c2ccccc2)on1 5.37%
O=C(Nc1nnc(S(=O)(=O)N2CCCCCC2)s1)c1cccc(Br)c1 8.93%
Cc1noc(-c2ccc(CSCCC(=O)O)cc2)c1NC(=O)OC(C)c1ccccc1Cl (stereo unspecified) -19.7%
Cc1cccc(N2CCN(C(=O)Cn3ncc4c3-c3ccccc3OC4)CC2)c1C 0.851%
CCc1nnc(SCc2ccc(F)cc2Cl)c2cc3sc(C)cc3n12 9.34%
COc1ccc(CNCCCSc2nnnn2C)c(OC)c1 -1.24%
CC(=O)c1ccc(NC(=O)c2nc(-c3ccccc3)n(-c3ccccc3Cl)n2)cc1 -8.03%
Clc1cccc(N2CCN(c3c4c(nc5nncn35)CCC4)CC2)c1 -4.71%
Cn1cnc(S(=O)(=O)N2CCC(C(=O)Nc3ccc(C#N)cc3)CC2)c1 15.8%
CCOC(=O)N1c2ccc(C(F)(F)F)cc2[C@@H](N(Cc2cc(C(F)(F)F)cc(C(F)(F)F)c2)C(=O)OC)C[C@H]1CC 4.48%
CCOc1ccc(C(=O)Nc2onc3c2CCCC3)cc1 0.872%
O=C(COc1ccccc1)Nc1ccc2nc(SCC(=O)N3CCc4ccccc43)sc2c1 0.205%
N#Cc1ccccc1Cn1c(SCC(=O)Nc2ccc(F)cc2)nc2ccccc21 15.5%
CCOc1ccc(CNC(=O)C2CCN(S(=O)(=O)c3ccc4c(ccn4C)c3)CC2)cc1 2.96%
Cc1nn(CC(=O)NCC(C)c2ccccc2)c(=O)c2cc3ccccc3n12 (stereo unspecified) 23.2%
COc1cccc(CNC(=O)CCn2c(=O)c3cccn3c3cccnc32)c1OC -14.7%
